# Data as given in ChEMBL document CHEMBL4888484, “Replenishing the malaria drug discovery pipeline: Screening and hit evaluation of the MMV Hit Generation Library 1 (HGL1) against asexual blood stage Plasmodium falciparum ,using a nano luciferase reporter read-out” (2022).
# The campaign covered roughly 150,000 compounds. About 540 (0.36%) showed an effect of 50% or more. The list shows a part of the results.
# Test system: Plasmodium falciparum
# Test: Primary screen in NF54 nanoGlo assay, in single point, at 2uM, 72h; a lower Z score goes with more inhibition
# Format: functional, Erythrocyte
# Settings: timepoint 72 hour
SMILES,% Inhibition [%],Z score
Cc1ccsc1-c1nc(CN2CCN(S(N)(=O)=O)CC2)c(C)o1,-7,0.94
CCOC(=O)NC[C@H](O)c1ccc(N(C)C)cc1,-13,1.71
Nc1nc(N)c2nc(-c3ccccc3-c3ccc(Cl)cc3)cnc2n1,3,-0.36
Cn1cnn(CCOCC(F)(F)C(F)(F)F)c1=O,-8,0.87
CCc1noc(CN2C[C@@H]3CC[C@H]2CN(C2CCOCC2)C3)n1,-2,0.36
CCS(=O)(=O)N(Cc1cccc(OCCN2CCCCC2)c1)C1CC1,-2,0.25
C[C@@H](Cn1cccn1)Nc1nc(-c2ccccc2)nc2c1CCNCC2,-1,0.14
CN(C)c1ccc(C(=O)N[C@H]2C[C@H]3C(=O)NC[C@@H](CCC(=O)NCc4ccccc4)N3C2)cc1,0,0.07
O=C([C@@H]1NCc2ncncc21)N1CCN(c2ccc(F)cc2)CC1,4,-0.54
O=C(CS(=O)(=O)c1ccc(F)cc1F)NCc1ccco1,-16,2.8
O=C(c1ccc2cc[nH]c2c1)N1CCC(N2CCC(Oc3ccccc3F)CC2)CC1,16,-2.63
CCN1CCC[C@@H]1CNC(=O)c1nn(-c2ccc(OC)cc2OC)c(=O)c2ccccc12,17,-1.96
CCOCc1nc(-c2c(C)ncc3c2CCN(Cc2[nH]cnc2C)C3)no1,-4,0.63
CO[C@@]1(C(=O)Nc2cnc3c(Br)cccn23)CCOC1,27,-3.1
CC1C(=O)C(C(=O)Nc2ccccc2F)C(=O)N1Cc1ccccc1 (stereo not given),7,-1.24
CCCCN1CCN([C@@H](C)C(=O)NC2CCCC2)CC1=O,-10,1.16
O=C(Nc1ccccc1OCCOc1ccccc1)[C@H]1CC12CCNCC2,-5,0.93
CC[C@]1(O)CCN(Cc2cc(=O)c3cccc(Cl)c3[nH]2)C[C@@H]1O,-3,0.45
O=C(Cn1[nH]c2ccccc2c1=O)N1CCCCCCC1,-15,2.54
COc1ccc(C)cc1NC(=O)OCC(F)(F)F,-8,1.29
CC(C)NC(=O)c1nc(-n2cnnc2)ccc1Br,0,-0.06
Cn1cccc1CNC(=O)Nc1cccc(-c2cn3c(n2)CCCC3)c1,-3,0.48

SMILES,% Inhibition [%],Z score
CN(CC1(C)COC1)C(=O)c1csc2ccccc12,-5,0.73
CCOCCCNC(=O)N1CCN(c2nnc(C)c3c(C)n(-c4ccc(C)cc4)nc23)CC1,1,-0.27
CC[C@@H]1NC(=O)N(CC2(CC#N)CC2)C1=O,-4,0.4
COc1cccc(CNC(=O)Nc2c(-c3ccncc3)[nH]c3ccc(Cl)cc23)c1,11,-1.77
CCC(=O)Nc1ccc(Cl)c(OC)c1,-5,0.68
OC[C@H]1CN(Cc2cncc(F)c2)CCN1Cc1cncc(F)c1,-9,1.07
CC1(C)CCC(=O)[C@@H](CNC(=O)OC(C)(C)C)C1,-2,0.22
Cc1cc(Nc2nnn[nH]2)nc(Cc2ccccc2)n1,-4,0.38
O=C1CC[C@@H](C(=O)N(C2CCCC2)C2CC2)N1,2,-0.3
CCc1ccc2[nH]c3c(c(=O)c2c1)CN(CC(=O)NCc1ccc(Cl)cc1)CC3,1,-0.07
Cc1ccc(OCCN2CC[C@@]3(C2)NC(=O)N(C(C)C)C3=O)cc1,15,-1.69
CCC1(CNC(=O)c2coc3cc(F)ccc23)COC1,-8,1.04
Cc1cc(CN2CCC(CNC(=O)c3cncs3)CC2)n[nH]1,-8,1.13
C=CCC1(CC=C)CCCN1C(=O)[C@H]1CCC(=O)N(CCN2CCOCC2)C1,-9,1.24
Cc1ncc(CN(C)CC(=O)N2CCC(O)CC2)s1,-10,1.32
COc1ccccc1C1(CNC(=O)CS(=O)(=O)Nc2ccc(N3CCCCC3)cc2)CCCC1,-6,1.26
CC(C(=O)Nc1ccc(Cl)cn1)N1CCCC(c2ccn[nH]2)C1 (stereo not given),5,-0.83
O=C(c1ccc2c(c1)CCCC2)N1CCC[C@]2(CC=CCC2)C1,-5,0.44
C[C@@H]1CN(CC(=O)NCCCn2ccnn2)C[C@H](C)O1,-10,1.12
O=C([C@@H](F)C(F)(F)F)N(Cc1ccccc1)C1CC1,-13,1.74
Cc1[nH]ccc(=O)c1OCC(=O)NC1CCN(Cc2ccccc2)CC1,-15,1.92
COc1ccc(CNC(=N)NS(=O)(=O)c2ccc(OC)c(OC)c2)c(OC)c1,36,-0.99

SMILES,% Inhibition [%],Z score
COCCNC(=O)CN1C(=O)CCn2nc(-c3ccc(C)cc3)cc21,4,-0.49
Cc1cc(C(=O)N2CCC3(CC2)C[C@@H](c2ccccc2)C(=O)N(C)C3)no1,3,-0.39
O=C([C@@H]1COc2cc(S(=O)(=O)Nc3ccc(F)cc3)ccc2O1)N1CCCCC1,-14,2.32
COc1cc(F)ccc1[C@H](C(=O)O)N1CCC(Oc2cccc(F)c2)CC1,-10,1.94
c1cnn(-c2ccc(CN3C[C@@H]4CC[C@H]3CN(C3CCOCC3)C4)cc2)c1,8,-1.33
CC(C)CN(C(=O)c1nc(=O)[nH][nH]1)C1CC1,8,-0.67
c1coc(-c2nc(COc3ccc4oc5ccccc5c4c3)cs2)c1,-2,0.24
Cc1ccsc1C(=O)N1CCCn2cc(-c3ccccc3)nc21,0,0.01
O=S(=O)(c1ccc(-c2cc(C(F)(F)F)[nH]n2)o1)N1CCCC[C@H]1c1nccs1,-4,0.81
CCN(C(=O)c1ccnc(C)n1)[C@@H](Cc1ccc(C)cc1)C1CC1,8,-1.01
O=C(NC[C@H]1CCCC2(CCC2)O1)c1c(Cl)oc2ccccc12,10,-1.33
CC(C)n1cc(C(=O)N2CCC(c3nc4ccccc4o3)CC2)cn1,-11,1.3
COCc1noc(C2CC(O)(c3cccc(Cl)c3)C2)n1 (stereo not given),-6,0.93
C=CCN(Cc1ccc(F)cc1)Cc1cnc(NCC(=O)O)nc1,7,-1
CCN(CCOc1cccc(C)c1)C(=O)c1csc(CN(C)C)n1,-9,1.65
Cc1nnc(OC2Cc3ccccc3C2)s1,-7,1.07
COc1cc(OC)cc([C@H](C(=O)O)N2CCc3ccccc3C(C)(C)C2)c1,0,-0.02
CCc1cc2c(N3CCCO3)ncnc2s1,1,-0.09
CCN1CC[C@H](NC(=O)C(C)(C)CO)C(F)(F)C1,-14,1.85
Cc1cc(C(=O)Nc2c(C(F)(F)F)nn(C)c2Cl)c(C)n1C,-2,0.27
CC(C)Oc1ccccc1-c1c[nH]c([C@H]2CC(=O)N(C3CCCC3)C2)n1,-11,1.61
Nc1nccnc1C(=O)N[C@@H](c1ccccc1)c1ccc2c(c1)CCCO2,1,-0.08

SMILES,% Inhibition [%],Z score
CCOCC(=O)Nc1cnn(-c2cccc(C)c2)c1CC,-7,0.87
CCC1(CO)CCN(C(=O)NCc2cnc(CC(C)C)s2)CC1,0,0.01
Cc1c[nH]c(CN2CCC(Oc3ccc(Cl)cc3C(=O)NC(C)(C)C)CC2)n1,-13,1.71
CNC(=O)[C@@H](C)CN(C)C(=O)Nc1cccc(N(C)C(C)C)c1,-7,0.79
COc1cccc(CN(CC(C)C)C(=O)CN2C(=O)CCNC2=O)c1,6,-0.7
C[C@@H]1Oc2ccccc2CN(CCc2cccs2)C1=O,2,-0.24
C[C@]1(c2ccccc2)C[C@H]1C(=O)NCCc1nc2c(s1)COCC2,-9,1.15
COCc1nc(CCCN2CCCC2=O)n(Cc2ccc(Cl)cc2)n1,-5,0.6
CN(C(=O)c1ccc2nccnc2c1)[C@H]1CCCN(CCCc2ccccc2)C1,-6,0.89
COc1ccc(N2C(=O)c3ccccc3NC23CCCCC3)cc1,4,-0.74
O=C(O)c1c(S(=O)(=O)NCc2ccsc2)sc2c1CCNC2,-5,0.89
CC(C)(Oc1ccc2c(c1)CCC2)C(=O)Nc1nccs1,-7,0.63
Cc1cc(C(=O)N2CCOC[C@H](Oc3ccc(S(C)(=O)=O)cc3)C2)c(C(F)(F)F)o1,-1,0.27
Fc1ccc(-c2cn[nH]c2[C@H]2CCCNC2)cc1,12,-1.37
COCc1cc(Cn2cc(-c3cc(C(C)(C)C)[nH]n3)nn2)n[nH]1,-10,1.31
Cc1ccccc1CN1C(=O)NC(C2CC2)(C2CC2)C1=O,9,-1.38
Cc1ccc(S(=O)(=O)NCc2nc(-c3cnn(C)c3)no2)s1,-26,3.36
CC1CC(C(=O)N2CCC[C@@H](O)C2)CC(C)(C)C1 (stereo not given in full),-11,1.43
CCCN1CCC[C@H]1CNC(=O)C1CCCCN1S(=O)(=O)CCC (stereo not given in full),-8,1.05
